In PubChem BioAssay AID493208 (National Center for Advancing Translational Sciences (NCATS), 2011):
The campaign covered roughly 44,000 compounds. About 340 (0.77%) were called active. Roughly 5% stayed inconclusive and do not appear here. Calls follow the shape of the dose curve; as a rule, active = well fitted inhibition curve with a large enough effect; inconclusive = small, poorly fitted or top-dose-only effect; inactive = flat fitted curve, though single readings scatter. The list shows a part of the results.

Experiment: Acumen qHTS Assay for Inhibitors of the mTORC1 Signaling Pathway in MEF (Tsc2-/-, p53-/-) Cells: Sytravon;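 also: plate controls were DMSO for no effect and rapamycin for full effect; nearly all actives have a fitted effect of over 50% in size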
Conditions: phospho-rpS6 immunofluorescence/PI, 24 h; series mostly up to 38.3 µM; activity change, negative = inhibition: at the top concentration
In short: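 Cell-based qHTS: Tsc2-/- p53-/- MEF, 24 h cpd, 37 °C; fix/perm, anti-phospho-S6 Alexa-488 + PI; Acumen 488 nm scan; pS6/PI ratio, % positive cells; rapamycin 7.5 nM = inhibition ref; PI count = viability.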

Activity change, negative = inhibition, inactive:
COCCNC(=O)c1nn(-c2ccc(C)cc2)c(=O)n(C)c1=O -0.784%
COc1ccc(C(CNC(=O)c2oc3cc(C)c(Cl)cc3c2C)N2CCCCC2)cc1 (stereo unspecified) 2.23%
COCCNC(=O)CCc1c(C)n(C)c2cc(-c3cc(OC)c(OC)c(OC)c3)nn2c1=O 1.06%
CC1CCN(S(=O)(=O)c2ccc3nc(NCc4ccccc4)ccc3c2)CC1 0%
Cn1c(=O)c(=O)n(C)c2cc(C(=O)NCc3ccccc3Cl)ccc21 0.154%
O=C(Cn1nc(-c2ccc(Cl)cc2)c2ccccc2c1=O)Nc1cccc(C(F)(F)F)c1 5.71%
COC(=O)c1scc(-c2ccc(C)cc2)c1S(=O)(=O)N1CCN(c2ccc(C)cc2C)CC1 -21.6%
COc1cccc(Nc2nc3ccccc3c3nncn23)c1 -4.37%
Cn1c(SCc2cc(=O)c3cc(Cl)ccc3[nH]2)nnc1-c1ccccc1 -14.2%
O=C(NCc1ccccc1Cl)c1c2c(nc3ccccc13)C(=O)N(C1CCCCC1)C2 -18.7%
CCCCC(=O)Nc1ccc(OCc2cc(=O)n3c(C)csc3n2)cc1 -16.1%
COC(=O)CCCCCn1c(-c2ccccc2)cn2c3c(=O)n(C)c(=O)n(C)c3nc12 -23.1%
CCN(CC)c1ccc(C2C(C(=O)Nc3ccccc3C)=C(C)Nc3ncnn32)cc1 (stereo unspecified) -1.08%
Cc1ccn2c(=O)cc(CSc3nnc(C)s3)nc2c1 3.22%
COc1ccc(OC)c(C(=O)CSc2ncc3c(n2)-c2ccccc2N(Cc2ccccc2C)S3(=O)=O)c1 3.9%
Cc1cccc(CCn2c(=O)c3ccccc3n(CC(=O)Nc3ccccc3F)c2=O)c1 -18.7%
Cc1cc2c(cc1NC(=O)c1ccccc1Cl)n(C)c(=O)c(=O)n2C -5.79%
CCN(Cc1ccccc1)Cc1c(O)ccc2c(=O)c(-c3ccc(Cl)cc3)c(C(F)(F)F)oc12 -24.1%
CCN(CC)CCCNC(=O)c1cn(CC(C)C)c(=O)c2c1c1ccccc1n2C 1.02%
COc1ccc(-c2nnc(SCC(=O)N3CCc4ccccc43)o2)cc1OC -2.02%
Cc1ccc2nc(-c3ccsc3)c(Nc3ccc(Cl)cc3)n2c1 -10.5%
Cc1cccc(-c2noc(-c3ccccc3OCC(=O)Nc3ccccc3[N+](=O)[O-])n2)c1 0.844%
Cc1ccn2cc(CNC(=O)c3cccc(C(F)(F)F)c3)nc2c1 -0.547%
CC(=O)c1cccc(NC(=O)[C@H]2O[C@@H]3OC(C)(C)O[C@@H]3[C@H]3OC(C)(C)O[C@H]32)c1 -7.91%
COc1ccc(-c2nc3scc(CCNS(=O)(=O)c4ccc(Oc5ccccc5)cc4)n3n2)cc1 -0.0123%
CCOC(=O)c1ccc(NC(=O)C(C)Sc2nc(=O)cc(N)n2CCc2ccccc2)cc1 (stereo unspecified) 7.51%
COc1ccc(OCC(=O)N(Cc2sccc2C)C2CCS(=O)(=O)C2)cc1 (stereo unspecified) 3.93%
CCN(CC)C(=O)Cn1c(=O)n(Cc2ccc(C(=O)NCCCOC)cc2)c(=O)c2ccccc21 -13.6%
O=C(Nc1ccc(F)cc1F)c1cc(S(=O)(=O)N2CCCCC2)c[nH]1 -10.5%
CCn1c2c(c(=O)n3ncc(C(=O)N4CCN(c5ccc(C(C)=O)cc5)CC4)c13)CN(Cc1ccc(OC)cc1)CC2 1.9%
Cc1ccc(C)c(N2C(=O)N(Cc3cccc(C(F)(F)F)c3)c3ccccc3S2(=O)=O)c1 -0.42%
Cc1ccc(C)c(NC(=O)N2CCN3CCCCC3C2)c1 (stereo unspecified) 1.82%
COc1ccc(F)cc1S(=O)(=O)Nc1ccc2c(c1)CCCN2C(=O)c1cccs1 0%
COc1ccc(C(=O)CCC(=O)Nc2ccc(F)cc2F)cc1 -8.71%
COC(=O)c1sccc1S(=O)(=O)N(CC(=O)NCc1ccc(C)cc1)c1ccc(C)c(C)c1 -2.96%
CCOC(=O)CSc1nc2cc(OC)c(OC)cc2c2nc(-c3ccccc3)nn12 -7.28%
CC(=O)c1c(C)oc2c1cc(NS(=O)(=O)c1c(C)cc(C)cc1C)c1ccccc12 1.75%
Cc1cc(NC(=O)c2cc(Cl)ccc2Cl)ccc1-c1cc2ccccc2oc1=O 19.3%
CCOC(=O)C1=C(C)N=C2SCCC(=O)N2C1c1ccc(OCc2ccccc2)c(OC)c1 (stereo unspecified) 3.37%
NS(=O)(=O)c1ccc(NC(=O)COc2ccc(S(=O)(=O)NC3CCCCC3)cc2)cc1 -9.65%
COc1cccc(-n2nnc(-c3nc(-c4cccs4)no3)c2N)c1 -3.08%
COc1ccc(NS(=O)(=O)c2ccc3[nH]c(=O)ccc3c2)cc1OC -16.1%
CCOc1ccc(S(=O)(=O)Nc2cccc(OC)c2)c2cccnc12 -23.1%
O=C1CS(=O)(=O)C2(C(=O)N(Cc3ccccc3)c3ccccc32)N1c1ccc(F)c(Cl)c1 (stereo unspecified) 0%
COc1ccc(S(=O)(=O)N(CC(=O)Nc2ccccc2Cl)Cc2ccccc2)cc1 1.8%
CN1C(=O)c2ccccc2Sc2ccc(NC(=O)NCc3ccc(Cl)cc3)cc21 -28.1%
Cc1ccc(CCNC(=O)CN2C(=O)COc3ccc(S(=O)(=O)N4CCCCCC4)cc32)cc1 -7.48%
O=C(Nc1cccc(Cl)c1)c1cc(-c2ccc3c(c2)OCO3)on1 2.07%
COc1cc(OC)cc(C(=O)Nc2ccc3nc4n(c(=O)c3c2)CCCCC4)c1 4.33%
COc1ccccc1C(=O)Oc1c(Sc2ccccc2)c(C)nn1-c1ccccc1 3.17%
O=C(Nc1cc(-c2ccc(Cl)cc2)no1)c1ccc(F)cc1 -4%
CCCSCCCNC(=O)CN1C(=O)COc2ccc(S(=O)(=O)N3CCCC3)cc21 -13.5%
Cc1ccc(C)c(N2CCN(C(=O)c3ccc4c(=O)n(CCc5ccccc5)c(=O)[nH]c4c3)CC2)c1 -7.1%
COCCc1nn2c(=O)cc(COC(=O)c3ccccc3C)nc2s1 1.86%
COc1cc(NC(=O)C2=CC(c3ccco3)=NS(=O)(=O)N2C)cc(OC)c1OC 2.05%
O=C(COc1ccc(F)cc1)Nc1ccccc1C(=O)OCc1cc(=O)n2ccsc2n1 0%
CCOC(=O)c1[nH]c2c(c1Cc1ccccc1OC)C(=O)CC(c1ccccc1)C2 (stereo unspecified) -11.1%
CCCCn1c(=O)c2oc3ccccc3c2n(Cc2ccccc2C)c1=O -2.36%
Cc1nc(-c2ccccc2)sc1CCNC(=O)C(=O)Nc1ccc(F)c(Cl)c1 -9.3%
NC(=O)c1ccccc1NC(=O)CN1c2ccccc2S(=O)(=O)c2ccccc21 -3.38%
COC(=O)c1c(NC(=O)COc2ccc(Cl)cc2)sc(C)c1C 3.12%
